Reference: the supplement of paper PMC3334620
Whole data set: some 33,000 sequences, median “E-score (-0.5 to 0.5)” near -0.054, cut for the highest 2% near 0.39. The list shows a part of the results.

biological target: Ylr278c (UniProt Q05854); experiment: PBM E-score (8-mer binding enrichment) (E-score (-0.5 to 0.5)); higher = stronger / more preferred TF binding; most listed sequences are background and not binding sites; conditions: protein concentration: 200 nM; construct: GST-DNA-binding domain
Method in brief: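 Full-length yeast transcription factors or their DNA-binding domains, GST-tagged and expressed with PURExpress, were applied at about 100-200 nM to universal all-10-mer Agilent arrays. These arrays had been made double-stranded by primer extension on fresh or once-stripped slides. Detection used fluorescent anti-GST, normalisation used masliner, and E-scores for ungapped eight-base words pooled with reverse complements came from the Universal PBM Analysis Suite.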

| Sequence | PBM E-score |
| --- | --- |
| ATCCGTGG | 0.299 |
| AAGCTGGC | -0.118 |
| CAGGGAAA | -0.0532 |
| AATGTCCC | 0.0132 |
| AGACCGGC | 0.254 |
| GTACCCAA | -0.151 |
| CACATCTA | 0.0303 |
| GACTAGTC | -0.193 |
| AGTATACC | 0.0108 |
| CAGAACCC | 0.0591 |
| CTGCCCTC | -0.303 |
| GCGACCAC | 0.119 |
| AGAACCGA | 0.0209 |
| GATCGAAC | -0.128 |
| CAAGTTTA | -0.0938 |
| GCGGTTAC | 0.0892 |
| CCCAGTGC | 0.0379 |
| GTTTTGCA | -0.113 |
| AGTTTCTG | -0.00765 |
| GAGCTTCA | 0.0127 |
| AGCTCTCA | 0.00229 |
| CGAACGAA | 0.03 |
| GTTTAGTA | -0.0474 |
| AAGCTCTG | -0.356 |
| CTAAGCAA | -0.182 |

| Sequence | PBM E-score |
| --- | --- |
| ACGAATTG | -0.117 |
| GCTGAGGA | -0.0366 |
| ACGGTTAG | -0.182 |
| TAACAGCA | -0.118 |
| AATCCGAG | 0.288 |
| AGGAATGC | -0.169 |
| AACAGCAC | 0.12 |
| GGCCTTGA | 0.0118 |
| TCTTTCAA | -0.0973 |
| CTTTGACC | 0.0264 |
| ACGTACCA | -0.256 |
| AATCTCTC | -0.0881 |
| GCATCGGA | 0.437 |
| CGGATTCA | 0.161 |
| GTAGTGGA | -0.0732 |
| ACCACTCG | -0.0078 |
| CCCTCCTC | -0.257 |
| AGTCTTTG | -0.289 |
| ATAGCAGC | -0.218 |
| AAATAAGT | -0.199 |
| ACCCTAGC | -0.135 |
| ATACATAC | -0.218 |
| CGTCATGA | -0.0752 |
| ATACCGAG | 0.108 |
| CTCATTTC | -0.0723 |

| Sequence | PBM E-score |
| --- | --- |
| CGTGAACA | -0.0181 |
| AATTAGGC | 0.0429 |
| ATATGTGC | -0.0208 |
| ATTTGCCC | 0.197 |
| ACTGGTAC | 0.0574 |
| ACGAGGTC | -0.113 |
| ACCCGAAA | 0.143 |
| GGGTATTA | 0.0478 |
| CATAGAGG | -0.289 |
| GCGGGTAA | 0.0108 |
| AGCATTAT | -0.122 |
| GGCCGTAC | 0.144 |
| CAGTCATC | -0.0775 |
| CCACCTGC | -0.15 |
| CCTTTCTC | -0.137 |
| CGTACCGA | 0.0386 |
| ACAAACAA | -0.0979 |
| CTGCATCC | -0.029 |
| ATATATTC | 0.168 |
| CCTAATTA | -0.112 |
| CCCCCATC | -0.159 |
| GTCCTTAA | -0.225 |
| AATCCGGC | 0.425 |
| TAGGTCAA | -0.286 |
| CGTAATAG | -0.152 |

| Sequence | PBM E-score |
| --- | --- |
| ATAGTCTA | -0.141 |
| TCCGTCCA | 0.292 |
| ACTACCTG | -0.0406 |
| GAGTGGCA | -0.00206 |
| AGTCTCAA | -0.118 |
| GTACACAC | -0.0886 |
| CAGCCACG | 0.00744 |
| ACAAGGCA | -0.157 |
| GTGGCGGA | 0.35 |
| CCTTGGAA | -0.0587 |
| AGGATACA | -0.226 |
| AAACTCTT | -0.269 |
| GACAAGGA | -0.0863 |
| CTAGTGCC | 0.0373 |
| AGAAATCC | 0.269 |
| AGGGATTA | -0.223 |
| AATCCGTC | 0.297 |
| CGAAGAAG | 0.0474 |
| ACCCAAGC | -0.158 |
| GAACGGGA | 0.0884 |
| CCTGAGCA | -0.141 |
| ACTACCAC | -0.0486 |
| ATTGAGAA | -0.0303 |
| ACCGTCGA | -0.112 |
| GGCGTAAA | 0.136 |

| Sequence | PBM E-score |
| --- | --- |
| ACCTGTCG | 0.0945 |
| CGTCGAAG | -0.128 |
| CGTCCATC | 0.145 |
| CGAAGATC | -0.0407 |
| AGTGGTAA | -0.139 |
| TGACTAAA | -0.0819 |
| CTAAATAC | -0.0339 |
| CTTGATGA | 0.0282 |
| TGGGCCCA | 0.026 |
| TAACCAAA | -0.0596 |
| AAAAGGCT | -0.0866 |
| ACTAGGTA | -0.206 |
| CCGACATA | 0.179 |
| AACTACAT | -0.161 |
| ACTTCTAT | -0.216 |
| CCTCCAGG | -0.249 |
| ATGCACGA | -0.138 |
| CACAAACC | -0.0749 |
| CTCAGGAC | -0.159 |
| ACATTCCT | -0.0674 |
| CATCTCTA | -0.17 |
| AAGAACCG | 0.158 |
| GACCGCAA | 0.176 |
| GCGGTTCA | 0.0173 |
| GCAACCTA | -0.299 |

| Sequence | PBM E-score |
| --- | --- |
| CCCCCAAG | -0.267 |
| AGCCGAAC | 0.138 |
| CCAGCACG | -0.15 |
| GCCAAAAA | -0.158 |
| ATAAACAC | -0.0977 |
| CGCCGATC | 0.377 |
| TGGGACAA | -0.11 |
| ACGAACAG | -0.115 |
| ACGATCTG | -0.168 |
| AGCAGGGC | -0.124 |
| GCACCGCC | 0.191 |
| GCATGAAA | -0.201 |
| CGCCCTGA | -0.0097 |
| CTGGTATC | -0.104 |
| AAGACATT | -0.0452 |
| GATCGGTA | 0.265 |
| ACATGGAG | -0.0163 |
| GAGCTCCA | 0.0103 |
| ATAATTAA | 0.0921 |
| AGCATCAC | -0.21 |
| ACAAGTGT | -0.209 |
| CGTCAGTA | -0.231 |
| AAAACGAG | -0.146 |
| GAGGGAGC | -0.108 |
| CCGGCGAG | 0.353 |

| Sequence | PBM E-score |
| --- | --- |
| AGGTTTAA | 0.0267 |
| TGATATAA | -0.223 |
| ATCCCCTG | -0.16 |
| ACTGCTTG | -0.0481 |
| ACTACAGA | 0.00882 |
| ATCGCGCA | 0.00622 |
| GAACACAA | -0.142 |
| GTCATCAC | -0.306 |
| GCCTCTCC | -0.0795 |
| AATATTAG | -0.202 |
| ATGCTGAA | -0.0562 |
| AAGCCATC | 0.0394 |
| ATTAGTTA | 0.0343 |
| CAGCCGAC | 0.0597 |
| TCCTTAGA | -0.155 |
| CACGTCCA | -0.286 |
| AGACCTGA | -0.13 |
| ATTCAGTG | 0.0848 |
| AGACTATC | -0.248 |
| TAGGGAGA | -0.0303 |
| AGGCGTGC | -0.0476 |
| ACAGTAGG | -0.2 |
